# Measured values published in PubChem BioAssay AID2147 (National Center for Advancing Translational Sciences (NCATS), 2009).
# “And” between values parts separate entries of the source, which are not always exact repeats. Equal values may be shown once. The whole screen tested about 230,000 compounds, of which about 3,600 (1.6%) were called active. Inconclusive means that the source gave no clear call. Such entries were picked first, then a sample of the others. The call rests on the fitted dose curve; in most records, active means well fitted inhibition curve with a large enough effect (not every such curve was filed as active); inconclusive means small, poorly fitted or top-dose-only effect, or another doubt; inactive means no such curve, though single readings can be large or run the other way. Potencies beside an inconclusive call are fits to weak or partial responses and may not hold up. More than one record can exist for a structure, and the calls need not agree.
# Molecular target: Lysine-specific demethylase 4E (Homo sapiens) (UniProt B2RXH2)
# Assay: qHTS Assay for Inhibitors of Human Jumonji Domain Containing 2E (JMJD2E)
# Conditions: JMJD2E catalytic domain, FDH-coupled NADH fluorescence (FDH is formaldehyde dehydrogenase); series mostly up to 57.1 µM
# Further: nearly all actives have a fitted effect of over 50% in size.
# Potency means the concentration at half of the fitted maximal effect; tags describe the fitted curve by direction and shape.
# 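Wherever activity change, negative = inhibition is given: 0% = wells with enzyme and -100% = buffer wells without enzyme.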
# Chain of UniProt B2RXH2 (B2RXH2 whole entry, looked up, the tested form may be a part): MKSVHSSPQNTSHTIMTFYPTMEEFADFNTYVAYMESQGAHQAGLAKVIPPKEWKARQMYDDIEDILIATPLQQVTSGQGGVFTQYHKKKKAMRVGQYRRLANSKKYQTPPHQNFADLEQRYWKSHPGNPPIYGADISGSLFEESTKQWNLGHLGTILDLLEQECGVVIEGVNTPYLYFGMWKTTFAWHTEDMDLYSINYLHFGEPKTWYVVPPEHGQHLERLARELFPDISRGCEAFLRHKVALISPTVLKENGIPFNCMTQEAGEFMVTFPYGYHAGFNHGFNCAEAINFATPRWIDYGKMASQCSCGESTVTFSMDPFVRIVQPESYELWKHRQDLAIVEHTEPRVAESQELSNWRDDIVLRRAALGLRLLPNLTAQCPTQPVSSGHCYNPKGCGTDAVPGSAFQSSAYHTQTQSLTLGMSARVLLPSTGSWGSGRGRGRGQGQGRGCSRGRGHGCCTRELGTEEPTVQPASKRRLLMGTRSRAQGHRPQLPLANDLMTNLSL
SMILES,Potency,"activity change, negative = inhibition"
COC(=O)c1sc(NC(=O)c2ccc([N+](=O)[O-])o2)c(C#N)c1C,"inconclusive: 39.8 µM [inhibitor, single point]",–
Cc1cc(C(F)(F)F)nc(NCc2cccnc2)n1,"inconclusive: 31.6 µM [inhibitor, single point]",–
Cc1sc(NC(=O)C2CCCC2)c(C#N)c1C,inactive,–
Cn1c(C(=O)O)cc2cc(F)ccc21,"inconclusive: 39.8 µM [inhibitor, single point]",–
Cn1c(-c2ccccc2)cnc1SCC(=O)N1CCCc2ccccc21,inactive,–
Cn1c(/C=N/NC(=O)c2ccccc2Br)nc2ccccc21,"inconclusive: 35.5 µM [inhibitor, single point]",–
C=CCN1C=C2C(=O)C(C)(OC(=O)c3cccs3)C(=O)C=C2C=C1CCCC(=O)OC (stereo not drawn),active: 15.8 µM,inactive: -25.6% [at 11.4 µM]
CCOC(=O)COc1cccc2c(=O)n(CC(=O)NCc3ccccc3)ccc12,"inconclusive: 39.8 µM [inhibitor, single point]",–
CCOC(=O)C1=NN(c2ccc(Cl)cc2)/C(=C/C2=NCCc3cc(OC)c(OC)cc32)S1,"inconclusive: 28.2 µM [inhibitor, single point]",–
Cn1c(N)c(C(=O)COC(=O)c2cc(C(F)(F)F)nc3ccccc23)c(=O)n(Cc2ccccc2)c1=O,"inconclusive: 35.5 µM [inhibitor, single point] and inconclusive: 39.8 µM [inhibitor, single point]",–
COc1cccc(/C=N/NC(=O)C[n+]2ccccc2)c1O,active: 14.1 µM,–
Cc1ccc2nc(N3C(=O)C(O)=C(C(=O)c4ccc(C)o4)C3c3cccc(O)c3)sc2c1 (stereo not drawn),"inconclusive: 35.5 µM [inhibitor, single point]",–
O=C(Nc1ccccc1)O/N=C(\c1ccccc1)c1ccccn1,"inconclusive: 39.8 µM [inhibitor, single point]",–
Nc1ccc(/C=C/c2ccc3ncccc3c2)cc1,inactive,–
CCOC(=O)c1c(/N=C/c2ccc(O)cc2O)sc2c1CCC2,"inconclusive: 22.4 µM [inhibitor, single point]",–
O=C(c1ccccc1Cl)N1CCc2ccccc2C1,inactive,–
COc1ccc(OCC(O)Cn2c(Br)nc3c2c(=O)[nH]c(=O)n3C)cc1 (stereo not drawn),"inconclusive: 31.6 µM [inhibitor, single point]",–
O=C(CNCC1CCCO1)Nc1ccccc1N1CCOCC1 (stereo not drawn),"inconclusive: 39.8 µM [inhibitor, single point]",–
Cn1c(N2CCOCC2)c(/C=N/OC(=O)c2cccnc2Cl)c2ccccc21,"inconclusive: 25.1 µM [inhibitor, partial curve]",–
COCCn1nnnc1CN(Cc1ccco1)Cc1cc2cc3c(cc2[nH]c1=O)OCO3,"inconclusive: 28.2 µM [inhibitor, partial curve]",–
O=C(O)c1ccc(N/N=C/c2cc3c(cc2[N+](=O)[O-])OCO3)cc1,"inconclusive: 12.6 µM [inhibitor, partial curve]",–
CCCn1nc(C(=O)Nc2ccc(S(=O)(=O)Nc3nccs3)cc2)c2ccccc2c1=O,inactive,–
CCOc1ccc(S(=O)(=O)N(C(=O)c2ccco2)c2cc3sc(=O)oc3c3ccccc23)cc1,active: 15.8 µM,–
COC(=O)[C@@H]1C[C@H]1[C@@H](NC(=O)c1ccc(Br)cc1)c1ccccc1,inactive,–

SMILES,Potency,"activity change, negative = inhibition"
O=C(C(Cl)Cl)N1c2ccccc2OCC1c1ccccc1 (stereo not drawn),inactive,–
Nc1nnc(SCC(=O)N2CCN(c3ccccc3)CC2)s1,inactive,–
COc1ccc(C(=O)CSc2nnc(CNC(=O)c3ccc(OC)cc3)n2C)cc1,inactive,–
O=C(O)c1ccc2c(c1)CCCN2,"inconclusive: 39.8 µM [inhibitor, single point]",–
COc1cc2c(C#N)c(N3CCCCC3)nc(N)c2c(N)n1,"inconclusive: 31.6 µM [inhibitor, partial curve]",–
Cc1cc(C)nc(SCc2ccc(C(=O)N/N=C3\CC(C)CC(C)(C)C3)cc2)n1 (stereo not drawn),inactive,–
CNC(=S)Nc1ccc2[nH]c(=O)[nH]c2c1,"inconclusive: 39.8 µM [inhibitor, partial curve]",–
COC(=O)c1cc(Cl)nc2ccccc12,"inconclusive: 39.8 µM [inhibitor, single point]",–
O=C1NCCCC1C(=O)N/N=C/c1cc([N+](=O)[O-])ccc1O (stereo not drawn),active: 10 µM,–
O=C(CSc1nnc(-c2ccccc2)o1)c1nnc(-c2ccccc2)o1,"inconclusive: 39.8 µM [inhibitor, single point]",–
Nc1nonc1-c1nc2ccccc2n1CC(=O)N/N=C/c1ccc(-c2cccc(C(=O)O)c2)o1,"inconclusive: 25.1 µM [inhibitor, partial curve]",–
O=C(Nn1c(-c2ccc(Br)cc2)nc2ccccc2c1=O)c1ccncc1,inactive,–
O=C(Cc1ccc(Br)cc1)c1ccc(O)cc1O,inactive,–
COc1ccc(CCNC(=O)Cn2c(=O)cnc3ccccc32)cc1,"inconclusive: 28.2 µM [inhibitor, single point]",–
CCOc1ccc(N=c2scc(-c3ccc(OC)cc3)n2CCO)cc1,inactive,–
O=C1Nc2ccccc2C12Nc1ccccc1S2 (stereo not drawn),"inconclusive: 25.1 µM [inhibitor, partial curve]",–
COc1ccc(/C(C)=N/Nc2nc3ccccc3nc2C)cc1,"inconclusive: 12.6 µM [inhibitor, partial curve, poor fit]",–
CC(=O)Oc1ccc(C(=O)Nc2cccc(-c3nnc(-c4ccco4)o3)c2)cc1,"inconclusive: 39.8 µM [inhibitor, single point]",–
CCOC1=NN(c2ccc(Cl)cc2)C(=O)/C1=C\N(C)C,inactive,–
CC(=O)N1N=C2c3ccccc3CCC2C1c1ccc(F)cc1 (stereo not drawn),inactive,–
O=C(CSCc1nc2ccccc2[nH]1)Nc1ccc(Oc2ccccc2)cc1,inactive,–
Cn1c(NCCCO)nc2c(c1=O)C1(CCCCC1)Cc1ccccc1-2,"inconclusive: 28.2 µM [inhibitor, partial curve]",–
c1cc(Nc2cccc3nccnc23)c2nccnc2c1,"inconclusive: 39.8 µM [inhibitor, single point]",–
